Reference: the supplement of paper PMC7826260
The list shows a part of the results. Cleavage of a single-stranded DNA pool by Rep nickase domains was read by sequencing for 1 h at 37 °C with 3 µM enzyme; only the middle of the 90-letter strands is printed. Numbers give uncut DNA relative to the enzyme-free pool, as log2; strong cutting gives strongly negative numbers. There is no active / inactive call. Counts are relative to all reads, so uncut sequences can rise above 0 when many others are cut.

These sequences were tested on T1, Rep nickase domain of tomato golden mosaic virus (assay: uncleaved DNA left, log2 of reads against the no-enzyme library (log2 ratio); higher = less cleavage (more negative = more Rep cleavage of the k-mer); sequences stand for … in CTCGTCCG…ACCGGAGA).
T1 sequence (protein, residues 1-124, tag omitted): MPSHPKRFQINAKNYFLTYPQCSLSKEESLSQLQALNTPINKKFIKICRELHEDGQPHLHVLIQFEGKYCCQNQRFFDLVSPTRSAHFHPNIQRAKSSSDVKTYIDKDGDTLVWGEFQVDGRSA
Description: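 A pool of 90-nt single-stranded DNAs with seven random bases just before the constant AC of the nick site (name = the seven bases) was cut by 3 µM recombinant His6-SUMO-tagged Rep nickase domain (300 nM DNA, 50 mM HEPES pH 8.0, 50 mM NaCl, 1 mM MnCl2, 1 h, 37 °C, three replicates). Uncut DNA was amplified and sequenced.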

Sequence | uncleaved DNA left (log2)
GTCTGGG | 0.0567
GTAGCCC | -0.063
GTCCGAA | 0.126
GTCGGTA | 0.0227
CAGTCGA | 0.174
TTAGTTA | -0.00815
GTCTGCA | -0.0122
AAGTCCT | -0.0401
AACTGTG | 0.16
CTTACAG | -0.0175
CACCAGC | -0.0222
ACGCTAA | 0.0986
TGGATGG | -0.0328
AACGTAC | -0.0178
AGCCCAA | -0.123
GCTCATC | 0.027
GCCCAGA | 0.257
CTCGACG | 0.0422
GTACCAG | -0.00618
CTTTAGT | -0.0625

Sequence | uncleaved DNA left (log2)
TGCTCAG | 0.01
ACGAACC | 0.0592
AGGATGG | 0.0637
ACACAGG | 0.226
ATACGAC | 6.61e-06
CAGGGCT | 0.0724
ACATGAA | 0.023
TATGAAT | -0.075
TCGAACC | -0.0456
GCCCTTA | 0.23
GGACTTT | -0.133
GATTCGC | -0.104
AGATTAA | 0.0692
ATTATCC | 0.0139
TACAAGG | 0.169
TTACATG | -0.125
GACTAAC | 0.00479
ATTTGTT | -0.339
GCCCCGC | -0.00712
CCTAGCT | 0.0297
